Experimental data from ChEMBL document CHEMBL4888484, “Replenishing the malaria drug discovery pipeline: Screening and hit evaluation of the MMV Hit Generation Library 1 (HGL1) against asexual blood stage Plasmodium falciparum ,using a nano luciferase reporter read-out” (2022).
In all, about 150,000 compounds went through this assay and about 540 (0.36%) showed an effect of 50% or more. The list shows a part of the results.

system: Plasmodium falciparum; experiment: Primary screen in NF54 nanoGlo assay, in single point, at 2uM, 72h; a lower Z score goes with more inhibition; format: functional, Erythrocyte; settings: timepoint 72 hour

| Structure (SMILES) | % Inhibition [%] | Z score |
| --- | --- | --- |
| CC(C)n1cnc2c1c(=O)n(CCc1ccccc1)c(=O)n2-c1ccc(Cl)cc1 | -19 | 2.43 |
| Fc1ccc2c(c1)CCC2NCc1cnn(C2CC2(F)F)c1 (stereo unspecified) | 3 | -0.53 |
| O=C(C1C2CCC(C2)N1S(=O)(=O)c1ccccc1)N1CCOCC1 (stereo unspecified) | -5 | 0.75 |
| c1cnn(-c2ccc(CN3CCc4cncnc4C3)cc2)c1 | -5 | 0.84 |
| CO[C@H]1COC[C@@H]1NC(=O)C1(N2CCCCC2)CCCCC1 | -4 | 0.8 |
| O=C(NCCOc1ccccc1)c1cnn2c1OCCC2 | -6 | 0.87 |
| CCOC(=O)C1CCC(CNC(=O)NCCn2nnc3cc(C(=O)N(C)C)ccc32)CC1 (stereo unspecified) | -2 | 0.21 |
| CC[C@H]1C(=O)NCCN1Cc1cnc2c(cnn2C(C)C)c1 | -7 | 0.74 |
| C=CCn1c(=O)c2sc(N(CC)CC)nc2n(CC(=O)Nc2cccc(Cl)c2C)c1=O | -9 | 0.77 |
| Cc1cnc(-c2cccc3ccnn23)nc1N(C)C | -6 | 0.79 |
| Cc1noc([C@@H]2CN(C(=O)CCc3nc4ccccc4[nH]3)C[C@H]2C(N)=O)n1 | -7 | 1.06 |
| COc1ccc2c(c1)[C@@H](OCCN(C)C)c1cccnc1CC2 | -4 | 0.76 |
| CC(C)(CC#N)CNC(=O)N1CC(F)C1 | -7 | 0.91 |
| O=C(NCC1CCN(C(=O)c2cnn[nH]2)CC1)c1ccoc1 | -13 | 1.29 |
| COCCCNC(=O)CN(C)Cc1c(C)nn(-c2ccccc2)c1Cl | 3 | -0.39 |
| CCS(=O)(=O)CCNc1nnc(C2CCC2)o1 | -13 | 2.46 |
| Cc1cccc(O)c1NC(=O)[C@H]1CC1(F)F | 1 | -0.11 |
| NC(=O)c1ccccc1OC[C@H]1CC1(Cl)Cl | -13 | 1.61 |
| CCn1ncc(S(=O)(=O)N[C@H](c2cnn(C)c2)C2CC(O)C2)c1C (stereo partly specified) | 3 | -0.34 |
| CN(C)c1cnn(CC(=O)N2CCCC[C@H]2c2cccc(F)c2)c(=O)c1 | -15 | 1.5 |
| O=C(c1ccc(F)c(Cl)c1)N1C[C@@H](CO)[C@H](c2ccncc2)C1 | -6 | 1.03 |
| O=C(Cc1c[nH]c2ccccc12)Nc1ccc(Cl)c2ncccc12 | 32 | -0.93 |
| Cc1cc(C)cc(N(CCC#N)C(=O)CN2CCC[C@H]2c2ccc3c(c2)OCCCO3)c1 | -2 | 0.18 |
| O=C(c1cc(-c2ccco2)n[nH]1)N1CCC(N2CCC(Oc3ccccc3F)CC2)CC1 | 59 | -4.88 |
| CCc1nsc(N(C[C@H](C)O)C2CC2)n1 | 13 | -1.72 |
| O=C(CN1CCN(Cc2ccccc2F)CC1)N1CCCc2ccccc21 | -13 | 1.45 |
| CC1CCCC(C)N1S(=O)(=O)c1ccc(NC(=O)CCC(=O)c2ccc3c(c2)OCCO3)cc1 (stereo unspecified) | -4 | 0.64 |

| Structure (SMILES) | % Inhibition [%] | Z score |
| --- | --- | --- |
| CC(C)[C@@H](N)CN(C)Cc1ccccc1 | -14 | 2 |
| COc1ccccc1[C@H]1CN(Cc2nc(C)n3ccccc23)C[C@@H]1C(=O)O | -2 | 0.31 |
| CC[C@H](C)N(CC(=O)N1CCCN(c2ccc(-c3ccccc3)nn2)CC1)C(=O)c1ccc(Cl)cc1 | -28 | 2.5 |
| Cc1cnc(-n2cnnc2)c(-c2ccc(C(=O)N3CC=C[C@@H]3C(C)C)cc2)c1 | 9 | -0.81 |
| Cc1cc(=O)n(Cc2nc(-c3c(F)cccc3F)cs2)cn1 | -3 | 0.4 |
| CC(=O)N1CCN(C(=O)c2coc(CN3CCN(c4cccc(C(F)(F)F)c4)CC3)n2)CC1 | -11 | 1.03 |
| C=C(C)CC(C)C(=O)N1CCCCC1C(O)CC (stereo unspecified) | -17 | 1.85 |
| CS(=O)(=O)Nc1nc(Cc2ccccc2)cs1 | -9 | 1.01 |
| Cc1ccc(-c2nc3cccnc3s2)cc1NC(=O)CCC1CCCCC1 | -18 | 3.55 |
| COc1ccc(-c2ncc(CN3CCC[C@H](C(=O)c4cccc(OC(C)C)c4)C3)cn2)cc1 | -1 | 0.1 |
| CCCN(CC(=O)N(Cc1ccccc1)Cc1cccs1)C(=O)CC(C)C | -12 | 1.15 |
| CCc1cc(C(=O)NC[C@H](C)c2ccc(S(C)(=O)=O)cc2)nn1C | 4 | -0.62 |
| O=C1c2c(Br)c(Br)c(Br)c(Br)c2C(=O)N1c1ccc(Cc2ccncc2)cc1 | 1 | -0.11 |
| O=C(NCCn1ccnc1)N1CCN(S(=O)(=O)c2ccccc2)CC1 | -3 | 0.56 |
| CC(=O)N1CCCN(C(=O)c2ccc(C)c(F)c2)CCNC(=O)[C@@H]2CCC[C@@H]21 | 33 | -3.69 |
| CC(=O)N1CCC(CN(C)CC(C)c2cccc(Cl)c2)C1 (stereo unspecified) | -9 | 1.25 |
| CN(Cc1noc(C2CCCC2)n1)C[C@H]1CC(c2ccccc2)=NO1 | -5 | 0.78 |
| Cc1nc(C(=O)NCC2(O)CCC2)c(Br)s1 | 0 | -0.01 |
| CC(=O)c1ccc(F)c(-c2cccc(C(=O)NC[C@H]3CN(C)CCO3)c2)c1 | 6 | -0.83 |
| CN(CCN1CCCCCC1)Cc1cc(C#CCO)cs1 | -1 | 0.23 |
| Cn1nc(-c2ccccc2F)c2cc(C(=O)N3CCN(c4ccc(F)cc4)CC3)sc21 | -10 | 1.26 |
| Cn1nc(C2CCC2)cc1NC(=O)NCc1ccsc1 | -13 | 2.06 |
| CNC(=O)c1cnc(-c2ccc(F)cc2)n(CC(=O)Nc2cccc(C)c2)c1=O | -17 | 2.72 |
| CC[C@](C)(NCCc1c[nH]c2ccccc12)c1nnnn1CCOC | 38 | -1.29 |
| O=C(Cc1ccccc1F)Nn1cnc2ccccc2c1=O | 2 | -0.43 |
| O=c1c2nnc3ncnn3c2ccn1-c1ccc(Oc2ccccc2)cc1 | 13 | -1.86 |
